Results on 31 molecules are retold here after the antibiotic and cytotoxicity screens of Wong et al. (2023).

Some of the results follow.

The assay has as its system HSkMC (human skeletal muscle cells). Nature of the assay: cytotoxicity call (relative viability < 0.9). The following applies: 10 µM.
With `C[C@H]1CN([C@@H](C)CO)C(=O)c2cc(/C=C/c3ccccc3)cnc2O[C@@H]1CN(C)C(=O)C1CCOCC1`, the cytotoxicity call is “inactive”. Next, `C[C@H](CO)N1C[C@H](C)[C@@H](CN(C)Cc2ccc(C(F)(F)F)cc2)Oc2ccc(NC(=O)Nc3ccccc3)cc2C1=O`: “inactive”; `O=C(CCCCCCC(=O)N/N=C/[C@@H](O)[C@@H](O)[C@H](O)[C@H](O)CO)NO`: “inactive”. Next, `CCCN(C)C[C@@H]1OCCCC[C@@H](C)Oc2ccc(NC(=O)Nc3c(C)noc3C)cc2C(=O)N([C@H](C)CO)C[C@@H]1C`: “inactive”. To `COc1ccc(NC(=O)N(C)C[C@H]2OCCCC[C@H](C)Oc3ccc(NC(=O)NC4CCCCC4)cc3C(=O)N([C@@H](C)CO)C[C@@H]2C)cc1` belongs “inactive”; to `CCCNC(=O)N1[C@@H]2Cn3c(cccc3=O)[C@H]1[C@@H](C(=O)NCC(F)(F)F)[C@@H]2CO`, “inactive”. Consider `C[C@H]1CCCCO[C@@H](CN(C)C(=O)c2ccccc2)[C@@H](C)CN([C@@H](C)CO)C(=O)c2cc(NS(=O)(=O)c3ccc(Cl)cc3)ccc2O1`, for which the cytotoxicity call was “inactive”.

Consider `C[C@@H]1CN([C@H](C)CO)C(=O)c2cccc(NC(=O)C3CCOCC3)c2O[C@@H]1CN(C)Cc1ccccc1`, for which the cytotoxicity call is “inactive”. Next, `C[C@@H]1CN([C@H](C)CO)C(=O)c2cc(NC(=O)Nc3ccccc3)ccc2O[C@@H](C)CCCCO[C@@H]1CN(C)C(=O)CCC(F)(F)F`: “inactive”; `Cc1noc(C)c1S(=O)(=O)Nc1ccc2c(c1)CC(=O)N([C@@H](C)CO)C[C@@H](C)[C@@H](CN(C)S(=O)(=O)c1ccc(F)cc1)O2`: “inactive”; `C[C@H]1CCCCO[C@@H](CN(C)Cc2ccncc2)[C@@H](C)CN([C@@H](C)CO)C(=O)c2cc(NC(=O)Nc3ccccc3)ccc2O1`: “inactive”. Next, `O=C(N[C@@H](c1ccccc1)c1ccc2ccccc2n1)C1CCN(Cc2cccc(C(F)(F)F)c2)CC1`: “inactive”; `C[C@@H]1CN([C@H](C)CO)C(=O)c2cccc(NC(=O)Nc3ccccc3)c2O[C@@H]1CN(C)Cc1ccc(Oc2ccccc2)cc1`: “inactive”. Next, `C[C@@H](Sc1nc(N)cc(N)n1)C(=O)O`: “inactive”. `C[C@H](CO)N1C[C@H](C)[C@H](CN(C)C(=O)C2CCOCC2)Oc2ncc(/C=C/c3ccccc3)cc2C1=O`: the cytotoxicity call is “inactive”. Next, `Cc1ccc(S(=O)(=O)N(C)C[C@H]2Oc3ccc(NS(=O)(=O)c4ccccc4)cc3C(=O)N([C@@H](C)CO)C[C@H]2C)cc1`: “inactive”; `CC(C)NC(=O)N(C)C[C@@H]1OCCCC[C@H](C)Oc2ccc(NS(=O)(=O)c3cn(C)cn3)cc2C(=O)N([C@H](C)CO)C[C@@H]1C`: “inactive”; `COc1ccc(S(=O)(=O)N(C)C[C@@H]2Oc3ccc(NS(C)(=O)=O)cc3CC(=O)N([C@H](C)CO)C[C@H]2C)cc1`: “inactive”.

`Cl.c1ccc(C2CN3CCSC3=N2)cc1` (stereo unspecified): the cytotoxicity call is “inactive”. To `C[C@H]1CN([C@@H](C)CO)S(=O)(=O)c2ccc(C#CCC3CCCC3)cc2O[C@@H]1CN(C)C(=O)c1cnccn1` belongs “inactive”. In the case of `COC1=CC(=O)c2ccccc2C1=O`, the cytotoxicity call is “inactive”. Next, `C[C@@H]1CN([C@H](C)CO)S(=O)(=O)c2ccc(C#CC3CC3)cc2O[C@H]1CN(C)Cc1cccc(F)c1`: “inactive”. To `CO[C@@H](CN(C)C(=O)Nc1ccc(C(F)(F)F)cc1)[C@H](C)CN(Cc1ccccc1Cl)[C@H](C)CO` belongs “inactive”; to `C[C@H](CO)N1C[C@H](C)[C@H](CN(C)C(=O)Cc2cccnc2)Oc2cc(-c3cncnc3)ccc2S1(=O)=O`, “inactive”; to `C[C@@H]1CN([C@H](C)CO)C(=O)c2cc(NC(=O)c3ccccc3)ccc2O[C@@H](C)CCCCO[C@@H]1CN(C)C(=O)c1ccccc1`, “inactive”.

With `CO[C@H]1CN(C)C(=O)c2cc(NS(C)(=O)=O)ccc2OC[C@@H](C)N(C(=O)CN(C)C)C[C@@H]1C`, the cytotoxicity call is “inactive”.

As to `NC(=O)CC1=NC(=O)CS1`, the cytotoxicity call is “inactive”. With `C[C@@H]1CN([C@@H](C)CO)C(=O)c2cc(NC(=O)CCCN(C)C)ccc2O[C@@H]1CN(C)S(=O)(=O)c1cccs1`, the cytotoxicity call was “inactive”. Next, `C[C@H]1CN([C@@H](C)CO)S(=O)(=O)c2ccc(Br)cc2O[C@H]1CN(C)S(=O)(=O)c1ccccc1`: “inactive”; `C[C@H]1CN([C@@H](C)CO)C(=O)Cc2cc(NC(=O)Nc3cccc4ccccc34)ccc2O[C@@H]1CN(C)C(=O)NC1CCCCC1`: “inactive”; `COc1ccc(-c2ccc3c(c2)O[C@H](CN(C)CC2CCOCC2)[C@H](C)CN([C@@H](C)CO)S3(=O)=O)cc1`: “inactive”.
